# Like-named read-outs stand apart in the source and are kept apart here.
# Tested on: cultured bloodstream T. brucei (strain 427)
# Experiment: microbe, parasite or virus in culture
# Details: Trypanosoma brucei
# [1] = read-out: T. brucei Alamar Blue
# [2] = read-out: T. brucei Alamar Blue (% survival)
# [3] = read-out: T. brucei Alamar Blue, Supplementary Table 1, compound 0.5 mM, percentage of controls in the absence of compound, mean ± SD (n=3) or SE (n=2)
SMILES,viability at 500 µM [1] [%],further results
"Cc1nc(C(N)=S)c[nH]1 [compound 135, 2-methyl-1H-imidazole-4-carbothioamide]",116 ± 16.6,viability at 500 µM [2]: 116 ± 16.6%
"N#Cc1ccc(Oc2ccccn2)cc1 [compound 596, 4‐(pyridin‐2‐yloxy)benzonitrile]",89.3 ± 9,
"Cc1nc(C)c(CO)s1 [compound 147, (2,4‐dimethyl‐1,3‐thiazol‐5‐yl)methanol]",98 ± 16.2,
"O=C(O)c1cccc(-n2cccc2)c1 [compound 511, 3‐(1H‐pyrrol‐1‐yl)benzoic acid]",46.2 ± 19.1,
"N#Cc1ccsc1N [compound 68, 2‐aminothiophene‐3‐carbonitrile]",30.3 ± 11,
"OCc1ccc(-c2cccs2)s1 [compound 598, 2,2′-bithien-5-ylmethanol]",55.3 ± 15.6,viability at 500 µM [2]: 55.3 ± 15.6%
"CNCc1ccc2ncccc2c1 [compound 366, N‐methyl‐N‐(quinolin‐6‐ylmethyl)amine]",41.5 ± 2.8,
"Oc1ncnc2cccc(F)c12 [compound 296, 5‐fluoroquinazolin‐4‐ol]",,viability at 500 µM [3]: 80.2 ± 9.5%
"COC(=O)Cc1cccc(OC)c1 [compound 451, methyl 2‐(3‐methoxyphenyl)acetate]",50.7 ± 17.1,
"N#Cc1ccc(F)cc1 [compound 51, 4‐fluorobenzonitrile]",85.3 ± 5.2,
"N#Cc1ccccc1Oc1ccccc1 [compound 591, 2‐phenoxybenzonitrile]",100 ± 1.9,
"CCc1cccc(C)n1 [compound 52, 2‐ethyl‐6‐methylpyridine]",80.8 ± 14,
"CC(=O)Nc1ccc2c(c1)CCC2 [compound 400, N1‐(2,3‐dihydro‐1H‐inden‐5‐yl)acetamide]",81.6 ± 17.2,
"OCc1ccc(N2CCOCC2)s1 [compound 618, (5‐morpholinothien‐2‐yl)methanol]",29.7 ± 4.6,
"CNCc1cccc(-c2nccs2)c1 [compound 653, N‐methyl‐3‐(1,3‐thiazol‐2‐yl)benzylamine]",26.6 ± 6.5,
"Nc1cc(-c2cccs2)[nH]n1 [compound 313, 5‐thien‐2‐yl‐1H‐pyrazol‐3‐amine]",52.4 ± 7,
"Cn1cccc1C(=O)O [compound 69, 1‐methyl‐1H‐pyrrole‐2‐carboxylic acid]",99.1 ± 18.5,
"O=C(O)c1ccc(-c2ccsc2)cc1 [compound 648, 4‐(3‐thienyl)benzoic acid]",71.2 ± 17.9,
"C#Cc1ccc(OCCCC)cc1 [compound 388, 1‐butoxy‐4‐eth‐1‐ynylbenzene]",100 ± 10.8,
"Nc1cccc(COc2ccccc2)c1 [compound 616, 3‐(phenoxymethyl)aniline]",35.4 ± 10.2,
"Cn1ccc(C(F)(F)F)n1 [compound 181, 1‐methyl‐3‐(trifluoromethyl)‐1H‐pyrazole]",105 ± 8,
"Cn1ccc2ccc(C(=O)O)cc21 [compound 398, 1‐methyl‐1H‐indole‐6‐carboxylic acid]",88.8 ± 14.9,
"Cn1c(=S)oc2ccccc21 [compound 310, 3‐methyl‐1,3‐benzoxazole‐2(3H)‐thione]",91.4 ± 3.7,
"Nc1cccc(Oc2ccccn2)c1 [compound 506, 3‐(pyridin‐2‐yloxy)aniline]",103 ± 5.4,
"OCc1cc(-c2cccs2)[nH]n1 [compound 459, (5‐thien‐2‐yl‐1H‐pyrazol‐3‐yl)methanol]",41.2 ± 2.9,
"COc1ccc(OC)c(CN)c1 [compound 329, 2,5‐dimethoxybenzylamine]",24.1 ± 3.4,

SMILES,viability at 500 µM [1] [%],further results
"Nc1ccccc1CN1CCOCC1 [compound 570, 2‐(morpholin‐4‐ylmethyl)aniline]",123 ± 10.8,
"NC(=O)Cc1ccc(F)cc1Cl [compound 519, 2‐(2‐chloro‐4‐fluorophenyl)acetamide]",105 ± 15.1,
"CC(C)(C)c1ccc(N)cc1 [compound 178, 4‐(tert‐butyl)aniline]",101 ± 6,
"O=C(O)Cc1coc2ccccc12 [compound 410, benzo[b]furan‐3‐ylacetic acid]",55.1 ± 19.3,
"N#Cc1ncccc1N1CCCCC1 [compound 517, 3‐piperidin‐1‐ylpyridine‐2‐carbonitrile]",32.2 ± 8.8,
"Cc1csc(C(N)=O)c1 [compound 134, 4‐methylthiophene‐2‐carboxamide]",73.7 ± 20.6,
"CCC1CCC(N)CC1 (stereo not shown) [compound 84, 4‐ethylcyclohexanamine]",95.1 ± 12.8,
"NC(=O)c1ccccc1N1CCCCC1 [compound 651, 2‐piperidinobenzamide]",31.6 ± 9.7,
"N#Cc1c(N)cccc1Cl [compound 210, 2‐amino‐6‐chlorobenzonitrile]",93.5 ± 7.9,
"N#CCc1ccc(O)cc1 [compound 98, 2‐(4‐hydroxyphenyl)acetonitrile]",101.5 ± 0.9,
"Cc1nc(C#N)cs1 [compound 67, 2‐methyl‐1,3‐thiazole‐4‐carbonitrile]",106 ± 18,
"N#CN1CCCC1 [compound 3, pyrrolidine‐1‐carbonitrile]",82.5 ± 12.8,
"O=C(O)c1ccco1 [compound 27, 2‐furoic acid]",21.3 ± 1,
"O=c1c2ccccc2oc2ncccc12 [compound 600, 5H‐chromeno[2,3‐b]pyridin‐5‐one]",80.8 ± 9.9,
"NC(=O)Cc1ccc(O)cc1 [compound 192, 2‐(4‐hydroxyphenyl)acetamide]",108 ± 16.5,
"O=C(Nc1ccncc1)c1ccccc1 [compound 603, N1‐(4‐pyridyl)benzamide]",82.8 ± 5,
"O=C(O)c1ccc2ccccc2n1 [compound 369, 2‐quinolinecarboxylic acid]",,viability at 500 µM [3]: 69.2 ± 10.7%
"CC(=O)c1ccc(C#N)s1 [compound 198, 5‐acetylthiophene‐2‐carbonitrile]",79.6 ± 18.5,
"O=C(O)c1ccc(-n2cccc2)cc1 [compound 512, 4‐(1H‐pyrrol‐1‐yl)benzoic acid]",42.1 ± 22.9,
"CCCc1ccc(NC(C)=O)cc1 [compound 426, N1‐(4‐propylphenyl)acetamide]",104 ± 11.3,
"CC(=O)c1nccnc1C [compound 117, 1‐(3‐methylpyrazin‐2‐yl)ethan‐1‐one]",105 ± 17.6,
"CC(C)(C)C(=O)Nc1ccncc1 [compound 439, 2,2‐dimethyl‐N‐(4‐pyridinyl)propanamide]",61 ± 18.6,
"Cc1cccc(CO)n1 [compound 62, (6‐methylpyridin‐2‐yl)methanol]",95.7 ± 17.2,
"Cc1occc(=O)c1O [compound 74, 3‐hydroxy‐2‐methyl‐4H‐pyran‐4‐one]",44.5 ± 21.1,
"Nc1ccc2occc2c1 [compound 100, 1‐benzofuran‐5‐amine]",38 ± 6.4,
"COc1ccc(Cl)cc1C(=O)O [compound 508, 5‐chloro‐2‐methoxybenzoic acid]",92.5 ± 12,

SMILES,viability at 500 µM [1] [%],further results
"OCc1ccccc1N1CCOCC1 [compound 580, (2‐morpholinophenyl)methanol]",88.6 ± 0.9,
"N#CC(c1ccccc1)N1CCOCC1 (stereo not shown) [compound 638, 2‐morpholino‐2‐phenylacetonitrile]",94.8 ± 10,
"OCc1ccc(C(F)(F)F)o1 [compound 314, [5‐(trifluoromethyl)‐2‐furyl]methanol]",99.1 ± 0.6,
"N#Cc1cccc(N2CCCC2)c1 [compound 362, 3‐pyrrolidin‐1‐ylbenzonitrile]",88.1 ± 5.6,
"N#Cc1ccccc1OC(F)(F)F [compound 509, 2‐(trifluoromethoxy)benzonitrile]",114 ± 19.6,
"OCc1ccc(OC(F)(F)F)cc1 [compound 563, [4‐(trifluoromethoxy)phenyl]methanol]",112 ± 10.3,
"Clc1cn2ccsc2n1 [compound 253, 6‐chloroimidazo[2,1‐b][1,3]thiazole]",52.8 ± 5.5,
"C1CNCCNC1 [compound 13, 1,4‐diazepane]",102 ± 15.4,
"OCc1ccc2nccn2c1 [compound 171, imidazo[1,2‐a]pyridin‐6‐ylmethanol]",81.7 ± 2.5,
"Nc1ccc(Cn2ccnc2)cc1 [compound 375, 4‐(1H‐imidazol‐1‐ylmethyl)aniline]",96.3 ± 7.6,
"CC(=O)NCc1cccnc1 [compound 188, N1‐(3‐pyridylmethyl)acetamide]",88.2 ± 7,
"OCc1ccc(CN2CCCCC2)cc1 [compound 669, [4‐(piperidin‐1‐ylmethyl)phenyl]methanol]",72.2 ± 11.3,
"O=C(O)c1ccc(-c2ccccn2)s1 [compound 661, 5‐(2‐pyridyl)thiophene‐2‐carboxylic acid]",89.3 ± 17.6,
"Cc1ccc2sc(CO)cc2c1 [compound 442, 5‐Methylbenzo[b]thiophene‐2‐methanol]",30.5 ± 6,
"O=C(C1CCCNC1)N1CCCC1 (stereo not shown) [compound 468, 3‐piperidinyl(1‐pyrrolidinyl)methanone]",93.4 ± 18.6,
"Oc1ccc(Oc2ccccc2)cc1 [compound 502, 4‐phenoxyphenol]",,viability at 500 µM [3]: 30.7 ± 4.5%
"Cc1nc(CO)c(C)o1 [compound 78, (2,5‐dimethyl‐1,3‐oxazol‐4‐yl)methanol]",103 ± 10.5,
"Nc1ccc2c(c1)C(=O)OC2 [compound 175, 6‐amino‐1,3‐dihydroisobenzofuran‐1‐one]",91.7 ± 12.2,
"N#Cc1cccc(-c2ccco2)c1 [compound 338, 3‐(2‐furyl)benzonitrile]",35.6 ± 7.3,
"NC(=S)N1CCOCC1 [compound 159, morpholine‐4‐carbothioamide]",113 ± 16.8,
"OCC1Cc2ccccc2O1 (stereo not shown) [compound 187, 2,3‐dihydro‐1‐benzofuran‐2‐ylmethanol]",66.8 ± 21.8,
"Cn1nccc1N [compound 7, 1‐methyl‐1H‐pyrazol‐5‐ylamine]",96.4 ± 2.6,
"NC(=O)c1ccccc1C(F)(F)F [compound 532, 2‐(trifluoromethyl)benzamide]",93.1 ± 13.1,
"CCOC(=O)Cc1ccc(N)cc1 [compound 446, ethyl 2‐(4‐aminophenyl)acetate]",111 ± 15.4,
"Cc1ccc(N)nc1 [compound 16, 5‐methylpyridin‐2‐amine]",66.2 ± 6.2,

# Source: PMC3199943, “Screening the MayBridge Rule of 3 Fragment Library for Compounds That Interact with the Trypanosoma brucei myo-Inositol-3-Phosphate Synthase and/or Show Trypanocidal Activity” (Molecular Biology International, 2011)
